In ChEMBL document CHEMBL5726550, “Pyrrolo [2,3-B] pyridine CDK9 kinase inhibitors” (2017) one finds IC50 data, which are given here for 38 compounds.

CDK9/cyclin T1, sequence (O60563 whole entry): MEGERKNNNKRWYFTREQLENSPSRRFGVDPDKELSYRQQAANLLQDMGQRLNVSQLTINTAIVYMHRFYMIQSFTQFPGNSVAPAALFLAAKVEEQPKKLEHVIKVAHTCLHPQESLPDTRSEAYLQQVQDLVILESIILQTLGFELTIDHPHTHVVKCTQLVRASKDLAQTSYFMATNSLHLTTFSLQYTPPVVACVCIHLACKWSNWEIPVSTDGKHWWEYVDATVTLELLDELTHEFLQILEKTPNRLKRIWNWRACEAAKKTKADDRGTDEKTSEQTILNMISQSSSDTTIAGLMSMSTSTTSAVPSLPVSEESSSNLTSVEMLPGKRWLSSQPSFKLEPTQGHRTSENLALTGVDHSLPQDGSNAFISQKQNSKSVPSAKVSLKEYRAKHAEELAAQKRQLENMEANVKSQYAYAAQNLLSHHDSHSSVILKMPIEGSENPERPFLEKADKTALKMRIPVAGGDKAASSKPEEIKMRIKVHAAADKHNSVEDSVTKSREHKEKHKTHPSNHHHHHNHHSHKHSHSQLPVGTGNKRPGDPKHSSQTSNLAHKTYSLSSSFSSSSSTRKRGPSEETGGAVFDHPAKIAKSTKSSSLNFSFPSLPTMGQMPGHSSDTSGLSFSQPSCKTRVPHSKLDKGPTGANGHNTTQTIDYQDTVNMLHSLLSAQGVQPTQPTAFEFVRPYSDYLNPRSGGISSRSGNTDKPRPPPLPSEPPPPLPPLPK
CDK9/cyclin T1, sequence (P50750 whole entry): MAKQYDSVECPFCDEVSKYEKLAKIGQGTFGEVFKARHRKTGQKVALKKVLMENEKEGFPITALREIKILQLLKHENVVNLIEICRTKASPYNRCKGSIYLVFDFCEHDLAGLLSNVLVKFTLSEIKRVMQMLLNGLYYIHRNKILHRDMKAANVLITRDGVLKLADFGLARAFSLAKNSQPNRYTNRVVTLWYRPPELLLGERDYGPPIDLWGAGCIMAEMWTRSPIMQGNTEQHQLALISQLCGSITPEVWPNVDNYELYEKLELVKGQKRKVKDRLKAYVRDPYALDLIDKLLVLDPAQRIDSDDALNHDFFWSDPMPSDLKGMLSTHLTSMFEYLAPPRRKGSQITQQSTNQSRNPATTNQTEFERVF

The assay concerns the target CDK9/cyclin T1 (Homo sapiens, UniProt O60563+P50750).
`COc1ccc(F)cc1-c1c(F)cnc2[nH]c(C3=CC4CCC(C3)N4CC(=O)O)cc12` (stereo not drawn) came in with a concentration for half-maximal inhibition (IC50) of 81 nM.

The compound `COc1ccc(F)cc1-c1ccnc2[nH]c(C3CC4CN(CC(N)=O)CC4C3)cc12` (stereo not drawn) showed an IC50 of 240 nM.

Compound `COc1ccc(F)cc1-c1ccnc2[nH]c(C3CC4CN(C(=O)CO)CC4C3)cc12` (stereo not drawn) returned an IC50 of 130 nM.

`COc1ccc(F)cc1-c1c(C#N)cnc2[nH]c(C3=CC4CN(CC(=O)N5CC(O)C5)CC4C3)cc12` (stereo not drawn) yielded an IC50 of 92 nM.

In the case of `COc1ccc(F)cc1-c1ccnc2[nH]c(C3CC4CN(CC(O)CO)CC4C3)cc12` (stereo not drawn), the IC50 came out at 340 nM.

In the case of `COc1ccc(F)cc1-c1ccnc2[nH]c(C3CC4CN(CC(=O)N(C)C5CC(O)C5)CC4C3)cc12` (stereo not drawn), the IC50 amounted to 290 nM.

`COc1ccc(F)cc1-c1ccnc2[nH]c(C3=CCC(N(C(=O)O)S(=O)(=O)N4CC(O)C4)CC3)cc12` (stereo not drawn) came in with an IC50 of 32 nM.

Regarding `COc1ccc(F)cc1-c1ccnc2[nH]c(C3=CCC([C@@](N)(C(=O)O)c4ccccc4)CC3)cc12` (stereo partly drawn), the IC50 turned out to be 63 nM.

Compound `COc1ccc(F)cc1-c1ccnc2c1cc(C1=CCC(C(=O)O)CC1)n2C[C@H](O)CO` (stereo partly drawn) returned an IC50 of 65 nM.

The compound `CS(=O)(=O)N1CCC(c2cc3c(-c4cc(NCc5ccncc5)ccc4F)ccnc3[nH]2)CC1` gave an IC50 of 91 nM.

In the case of `COc1ccc(F)cc1-c1ccnc2[nH]c(C3=CC4CN(CC(=O)O)CC4C3)cc12` (stereo not drawn), the IC50 is 71 nM.

In the case of `COc1ccc(F)cc1-c1ccnc2[nH]c(C3=CCCN(CC(=O)N4CCC[C@H]4CO)CC3)cc12`, the half-inhibitory concentration (IC50) turned out to be 120 nM.

`COc1ccc(F)cc1-c1ccnc2[nH]c(C3=CCN(C4CC(C(=O)O)C4)CC3)cc12` (stereo not drawn) registered a half-inhibitory concentration (IC50) of 79 nM.

As for `COc1ccc(F)cc1-c1c(Cl)cnc2[nH]c(C3=CCN([C@H]4CC[C@H](CC(=O)O)CC4)CC3)cc12`, the IC50 came out at 140 nM.

In the case of `CS(=O)(=O)N1CCC(c2cc3c(-c4cc(NCc5ccc(C(N)=O)cc5)ccc4F)ccnc3[nH]2)CC1`, the IC50 worked out at 190 nM.

As to `COc1ccc(F)cc1-c1ccnc2[nH]c(C3CC4CN(C(=O)C5CC(O)C5)CC4C3)cc12` (stereo not drawn), the IC50 stood at 160 nM.

Take `COc1ccc(F)cc1-c1ccnc2[nH]c(C3CC4CN(C(=O)NC#N)CC4C3)cc12` (stereo not drawn): it took 59 nM to reach half-maximal inhibition (IC50).

On to `CNS(=O)(=O)CC(=O)N1CC2CC(c3cc4c(-c5cc(F)ccc5OC)ccnc4[nH]3)CC2C1` (stereo not drawn), for which the 50% inhibitory concentration (IC50) amounted to 64 nM.

Turning to `COc1ccc(F)cc1-c1c(Cl)cnc2[nH]c(C3=CCN([C@H]4CC[C@@H](CC(=O)O)CC4)CC3)cc12`, the IC50 was 77 nM.

Compound `COc1ccc(F)cc1-c1ccnc2[nH]c(C3CC4CN(CC(=O)N(C)CCO)CC4C3)cc12` (stereo not drawn) registered an IC50 of 120 nM.

The compound `COc1ccc(F)cc1-c1c(F)cnc2[nH]c(C3=CC4CN(CC(=O)O)CC4C3)cc12` (stereo not drawn) registered an IC50 of 130 nM.

Turning to `CC(C)(O)C(=O)N1CCC=C(c2cc3c(-c4cccc(F)c4F)ccnc3[nH]2)C1`, the midpoint of inhibition, the IC50, lay at 790 nM.

The compound `CCOc1cc(F)c(F)cc1-c1ccnc2[nH]c(C3=CCNCC3)cc12` displayed an IC50 of 68 nM.

`COc1ccc(F)cc1-c1c(C#N)cnc2[nH]c(C3=CC4CN(CC(=O)O)CC4C3)cc12` (stereo not drawn) returned an IC50 of 130 nM.

In the case of `COc1ccc(F)cc1-c1ccnc2[nH]c(C3CC4CN(CC(=O)N(C)C)CC4C3)cc12` (stereo not drawn), the IC50 is 150 nM.

`COc1ccc(F)cc1-c1ccnc2[nH]c(C3CC4CN(CC(=O)N5CC(O)C5)CC4C3)cc12` (stereo not drawn) displayed an IC50 of 290 nM.

`COc1ccc(F)cc1-c1ccnc2[nH]c(C3CC4CN(C(C)=O)CC4C3)cc12` (stereo not drawn) yielded an IC50 of 140 nM.

With `COc1ccc(F)cc1-c1ccnc2[nH]c(C3CC4CN(C(=O)CC#N)CC4C3)cc12` (stereo not drawn), it took 75 nM to reach half-maximal inhibition (IC50).

Take `COc1ccc(F)cc1-c1ccnc2[nH]c(C3CCN(Cc4ccc5c(c4)OCO5)CC3)cc12`: inhibition was half-maximal at 61 nM (IC50).

Consider `CCOC(=O)NS(=O)(=O)N1CC=C(c2cc3c(-c4cc(F)ccc4OC)c(C)cnc3[nH]2)CC1`, for which 130 nM corresponded to half-maximal inhibition (IC50).

In turn, `COc1ccc(F)cc1-c1ccnc2[nH]c(C3=CCN(c4c(N)c(=O)c4=O)CC3)cc12` showed an IC50 of 30 nM.

For `CNC(=O)N1CC2CC(c3cc4c(-c5cc(F)ccc5OC)ccnc4[nH]3)CC2C1` (stereo not drawn), the half-maximal inhibitory concentration (IC50) was determined as 30 nM.

As for `CC(=O)N1CC=C(c2cc3c(-c4cc(OCc5cc(F)cc(F)c5)ccc4F)ccnc3[nH]2)CC1`, the IC50 worked out at 280 nM.

As to `COc1ccc(F)cc1-c1c(C#N)cnc2[nH]c(C3=CC4CCC(C3)N4CC(=O)O)cc12` (stereo not drawn), half-maximal inhibition (IC50) required 57 nM.

`COc1ccc(F)cc1-c1ccnc2[nH]c(C3CC4CN(CC(=O)N5CCC[C@H]5CO)CC4C3)cc12` (stereo partly drawn) showed an IC50 of 130 nM.

For the compound `COc1ccc(F)cc1-c1ccnc2[nH]c(C3=CCC(NC45CC(C(=O)O)(C4)C5)CC3)cc12` (stereo not drawn), half-maximal inhibition (IC50) required 78 nM.

`COc1ccc(F)cc1-c1ccnc2[nH]c(C3=CCN(CC(=O)N4CCC4O)C3)cc12` (stereo not drawn): the IC50 stood at 74 nM.

The compound `COc1ccc(F)cc1-c1ccnc2[nH]c(C3=CCN(C4CC5CC(CC(=O)O)CC5C4)CC3)cc12` (stereo not drawn) gave an IC50 of 390 nM.
